# According to PubChem BioAssay AID485290 (National Center for Advancing Translational Sciences (NCATS), 2010):
# In all, about 350,000 compounds went through this assay and about 990 (0.28%) were called active. Inconclusive results, whose numbers are uncertain, are shown with a selection of clear calls. Calls come from the whole dose curve; as a rule, active = well fitted inhibition curve with a large enough effect; inconclusive = small, poorly fitted or top-dose-only effect; inactive = no such curve, though single readings can be large or run the other way. Potencies beside an inconclusive call are fits to weak or partial responses and may not hold up.
# Target: Tyrosyl-DNA phosphodiesterase 1 (Homo sapiens) (UniProt Q9NUW8)
# Assay: qHTS Assay for Inhibitors of Tyrosyl-DNA Phosphodiesterase (TDP1); note: nearly all actives have a fitted effect of over 40% in size
# Details: recombinant TDP1, AlphaScreen DNA substrate cleavage; activity change, negative = inhibition: at 130 µM (top of the series) unless noted
# Procedure, shortened: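 Recombinant E. coli-expressed Tdp1 (1 nM) preincubated with compound 15 min at RT, then 5'-biotin/3'-phosphotyrosine-FITC DNA substrate (15 nM) added for 5 min. AlphaScreen beads (10 ug/ml) added, 10 min RT; tyrosine-FITC cleavage read as signal loss.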
# % is set by controls: 0 for no effect and ±100 for the full control effect; potency is the fitted concentration of half-maximal effect; tags give direction and shape of the fitted curve.
# Sequence of UniProt Q9NUW8 (Q9NUW8 whole entry, looked up): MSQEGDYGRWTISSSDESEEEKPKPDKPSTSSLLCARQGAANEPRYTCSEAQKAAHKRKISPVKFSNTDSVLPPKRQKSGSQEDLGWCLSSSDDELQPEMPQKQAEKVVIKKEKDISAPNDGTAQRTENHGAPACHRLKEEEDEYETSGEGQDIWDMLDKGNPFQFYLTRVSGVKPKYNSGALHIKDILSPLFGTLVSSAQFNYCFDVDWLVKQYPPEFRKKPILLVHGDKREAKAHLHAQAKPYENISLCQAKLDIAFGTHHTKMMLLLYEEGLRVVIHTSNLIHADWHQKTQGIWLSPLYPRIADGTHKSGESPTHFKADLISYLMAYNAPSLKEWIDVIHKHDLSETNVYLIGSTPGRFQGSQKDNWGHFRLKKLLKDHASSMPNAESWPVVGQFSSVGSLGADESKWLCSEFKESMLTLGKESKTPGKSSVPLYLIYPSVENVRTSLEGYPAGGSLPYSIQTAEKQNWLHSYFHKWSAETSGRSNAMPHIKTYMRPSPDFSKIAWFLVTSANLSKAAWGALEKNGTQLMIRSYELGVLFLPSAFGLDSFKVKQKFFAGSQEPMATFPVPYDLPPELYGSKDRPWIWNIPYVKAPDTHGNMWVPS
Structure (SMILES),Potency,"activity change, negative = inhibition"
Cc1cc(-c2ccc(S(=O)(=O)Nc3ccc(Cl)cc3C)cc2)on1,inactive,
c1ccc(CN2CCC3(CCCc4ccccc43)CC2)cc1,"inconclusive: 0.0005 µM [inhibitor, full curve, poor fit]",
CCOC(=O)N1CCN(C(=O)c2ccc3c(c2)N=C(C)c2cc(Cl)ccc2S3)CC1,inactive,
Cc1cc(C)nc(N2CCC(C(=O)NCCc3ccccc3)CC2)n1,inactive,
Cc1nccn1CC(=O)N/N=C/c1ccccc1O,"inconclusive: 35.5 µM [inhibitor, single point]",
COc1cc(-c2cc(-c3ccc(F)cc3)nc(N)c2C#N)ccc1O,"inconclusive: 89.1 µM [inhibitor, single point]",
COc1ccccc1N1C(=O)[C@@H]2[C@H](C1=O)[C@H](C(=O)c1ccc(OC(C)=O)cc1)N1N=CC=C[C@@H]21,"inconclusive: 0.251 µM [inhibitor, partial curve]",
COc1cccc(OC)c1OCCCc1c(C)n[nH]c1C,inactive,
C=C/C(C)=C/[C@@]1(C)SC(=O)C(C)=C1O,"inconclusive: 11.2 µM [inhibitor, partial curve]",
CO[C@@]12[C@@H](COC(N)=O)C3=C(C(=O)C(C)=C(N)C3=O)N1C[C@@H]1N[C@@H]12,active: 35.5 µM,
C/C(=N\Nc1ccccc1[N+](=O)[O-])c1ccccc1O,"inconclusive: 0.631 µM [inhibitor, full curve, poor fit]",
O=C1c2cccc3cccc(c23)N1Cc1cccc(F)c1,active: 79.4 µM,
Nn1c(SCC(=O)NCC2CCCO2)nnc1-c1ccc(OC(F)F)cc1 (configuration not stated),active: 89.1 µM,
COc1ccc(CC(=O)OC(C)C(=O)c2ccc(C)cc2)cc1 (configuration not stated),active: 79.4 µM,
O=C(c1cccn2c(=O)c3ccccc3nc12)N1CCN(Cc2ccc3c(c2)OCO3)CC1,inactive,
N#Cc1cccc(CS(=O)(=O)c2ccccc2)c1,inactive,
CC(C)C(=O)NC(NC(=S)Nc1ccc(S(N)(=O)=O)cc1)C(Cl)(Cl)Cl (configuration not stated),inactive,
O=[N+]([O-])c1ccc(CN2CCCCCC2)s1,"inconclusive: 3.16 µM [inhibitor, full curve]",
COc1ccc(C)cc1NC(=O)c1cc(S(=O)(=O)NCCC2=CCCCC2)ccc1F,inactive,
CCCc1cc(=O)oc2cc(OCC(=O)NCCCN3CCOCC3)ccc12,inactive,
CC(=O)Nc1ccc(S(=O)(=O)N/N=C/c2ccc(C)o2)cc1,,inconclusive: -22.1% [inhibitor] [at 56.1 µM]
O=[N+]([O-])c1cccc(/C=N/N2CCN(Cc3ccccc3)CC2)c1,inactive,
